The other results are listed elsewhere or left out.

The assay concerns the target T1, MBP-FoxP1dN (Mus musculus, UniProt P58462 326-579).
T1 sequence: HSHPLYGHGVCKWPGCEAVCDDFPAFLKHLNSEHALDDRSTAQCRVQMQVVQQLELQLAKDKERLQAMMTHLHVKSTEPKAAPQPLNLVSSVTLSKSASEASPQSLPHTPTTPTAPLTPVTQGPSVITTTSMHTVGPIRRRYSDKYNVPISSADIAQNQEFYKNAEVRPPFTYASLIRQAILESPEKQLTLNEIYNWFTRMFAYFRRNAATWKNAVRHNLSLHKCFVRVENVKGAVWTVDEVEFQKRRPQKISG
The experiment in a line: PD-seq (MBP pull-down with sequencing); 20 mM Tris-HCl pH 7.5, 100 mM NaCl, 1.5 mM MgCl2, 0.4 uM protein, 0.1 uM dsDNA library, 30 min, room temperature, amylose pull-down; high values mean tight binding. The note with it: protein: recombinant; tags: His6-MBP; chain copies: 2; dsDNA, one strand shown. Summed up: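 Amylose resin was used to capture complexes formed during 30 min at room temperature in Tris pH 7.5 buffer with NaCl and MgCl2 between 0.4 µM His6-MBP-tagged mouse FoxP3 or FoxP1 fragment lacking the N-terminus, expressed in E. coli, and 0.1 µM Klenow-filled double-stranded degenerate DNA library. After three washes, the DNA was released with proteinase K, barcoded by PCR and sequenced on Illumina. Binding is pooled-replicate reads-per-million enrichment, pull-down over input.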
Regarding “GATGATTGTTCTCCCAGCTGATGAATTCTAACCGTCGAGTAAACAAATTTTCCTAATCTTTCTGTTCAAGCGCCATCTAC”, the binding signal is 0.872 RPM ratio (pull-down/input). “GATGATTGTTCTCCCAGCTGATGAATTCAGCATTTCGAGTAAACAAATTTTCCTAATCTTTCTGTTCAAGCGCCATCTAC”: the binding signal was 1.05 RPM ratio (pull-down/input). With “GATGATTGTTCTCCCAGCTGATGAATTTGAGGTTTCGAGTAAACAAATTTTCCTAATCTTTCTGTTCAAGCGCCATCTAC”, the binding signal is 0.755 RPM ratio (pull-down/input).

With “GATGATTGTTCTCCCAGCTGATGAATTCTAGTTGTCGAGTAAACAAATTTTCCTAATCTTTCTGTTCAAGCGCCATCTAC”, the binding signal is 1.47 RPM ratio (pull-down/input). For “GATGATTGTTCTCCCAGCTGATGAATTAAGTTAGTCGAGTAAACAAATTTTCCTAATCTTTCTGTTCAAGCGCCATCTAC”, the binding signal was 0.966 RPM ratio (pull-down/input). Under “GATGATTGTTCTCCCAGCTGATGAATTCGAATGATCGAGTAAACAAATTTTCCTAATCTTTCTGTTCAAGCGCCATCTAC” stands 0.904 RPM ratio (pull-down/input); under “GATGATTGTTCTCCCAGCTGATGAATTCAACTATTCGAGTAAACAAATTTTCCTAATCTTTCTGTTCAAGCGCCATCTAC”, 0.958 RPM ratio (pull-down/input); under “GATGATTGTTCTCCCAGCTGATGAATTAGAGCGATCGAGTAAACAAATTTTCCTAATCTTTCTGTTCAAGCGCCATCTAC”, 0.889 RPM ratio (pull-down/input). Consider “GATGATTGTTCTCCCAGCTGATGAATTTGATTTCTCGAGTAAACAAATTTTCCTAATCTTTCTGTTCAAGCGCCATCTAC”, for which the binding signal is 0.937 RPM ratio (pull-down/input).

With “GATGATTGTTCTCCCAGCTGATGAATTGGGGGTGTCGAGTAAACAAATTTTCCTAATCTTTCTGTTCAAGCGCCATCTAC”, the binding signal was 0.816 RPM ratio (pull-down/input). Under “GATGATTGTTCTCCCAGCTGATGAATTCCTGGCGTCGAGTAAACAAATTTTCCTAATCTTTCTGTTCAAGCGCCATCTAC” stands 0.824 RPM ratio (pull-down/input).

As for “GATGATTGTTCTCCCAGCTGATGAATTCAGATGATCGAGTAAACAAATTTTCCTAATCTTTCTGTTCAAGCGCCATCTAC”, the binding signal is 0.864 RPM ratio (pull-down/input).

“GATGATTGTTCTCCCAGCTGATGAATTAATTTTGTCGAGTAAACAAATTTTCCTAATCTTTCTGTTCAAGCGCCATCTAC”: the binding signal is 0.994 RPM ratio (pull-down/input). The same measure for “GATGATTGTTCTCCCAGCTGATGAATTTGCGACCTCGAGTAAACAAATTTTCCTAATCTTTCTGTTCAAGCGCCATCTAC”: 0.925 RPM ratio (pull-down/input); for “GATGATTGTTCTCCCAGCTGATGAATTAAGGGAATCGAGTAAACAAATTTTCCTAATCTTTCTGTTCAAGCGCCATCTAC”: 0.93 RPM ratio (pull-down/input); for “GATGATTGTTCTCCCAGCTGATGAATTATTAGTGTCGAGTAAACAAATTTTCCTAATCTTTCTGTTCAAGCGCCATCTAC”: 1.3 RPM ratio (pull-down/input). Under “GATGATTGTTCTCCCAGCTGATGAATTCGAGTAGTCGAGTAAACAAATTTTCCTAATCTTTCTGTTCAAGCGCCATCTAC” stands 0.869 RPM ratio (pull-down/input); under “GATGATTGTTCTCCCAGCTGATGAATTCTGCATATCGAGTAAACAAATTTTCCTAATCTTTCTGTTCAAGCGCCATCTAC”, 0.96 RPM ratio (pull-down/input); under “GATGATTGTTCTCCCAGCTGATGAATTGGATATCTCGAGTAAACAAATTTTCCTAATCTTTCTGTTCAAGCGCCATCTAC”, 0.793 RPM ratio (pull-down/input). Under “GATGATTGTTCTCCCAGCTGATGAATTATCGAACTCGAGTAAACAAATTTTCCTAATCTTTCTGTTCAAGCGCCATCTAC” stands 0.976 RPM ratio (pull-down/input). Turning to “GATGATTGTTCTCCCAGCTGATGAATTGCTAGGCTCGAGTAAACAAATTTTCCTAATCTTTCTGTTCAAGCGCCATCTAC”, the binding signal is 0.84 RPM ratio (pull-down/input). The same measure for “GATGATTGTTCTCCCAGCTGATGAATTAGTGTGCTCGAGTAAACAAATTTTCCTAATCTTTCTGTTCAAGCGCCATCTAC”: 0.982 RPM ratio (pull-down/input); for “GATGATTGTTCTCCCAGCTGATGAATTTACTAGCTCGAGTAAACAAATTTTCCTAATCTTTCTGTTCAAGCGCCATCTAC”: 1.14 RPM ratio (pull-down/input).

“GATGATTGTTCTCCCAGCTGATGAATTACTCATCTCGAGTAAACAAATTTTCCTAATCTTTCTGTTCAAGCGCCATCTAC”: the binding signal is 1.06 RPM ratio (pull-down/input). Under “GATGATTGTTCTCCCAGCTGATGAATTCCGGTACTCGAGTAAACAAATTTTCCTAATCTTTCTGTTCAAGCGCCATCTAC” stands 0.855 RPM ratio (pull-down/input); under “GATGATTGTTCTCCCAGCTGATGAATTAGTCGCATCGAGTAAACAAATTTTCCTAATCTTTCTGTTCAAGCGCCATCTAC”, 1.23 RPM ratio (pull-down/input).

With “GATGATTGTTCTCCCAGCTGATGAATTGAAGATTTCGAGTAAACAAATTTTCCTAATCTTTCTGTTCAAGCGCCATCTAC”, the binding signal is 0.9 RPM ratio (pull-down/input). Consider “GATGATTGTTCTCCCAGCTGATGAATTAACACTATCGAGTAAACAAATTTTCCTAATCTTTCTGTTCAAGCGCCATCTAC”, for which the binding signal was 1.08 RPM ratio (pull-down/input). Under “GATGATTGTTCTCCCAGCTGATGAATTAGACTCATCGAGTAAACAAATTTTCCTAATCTTTCTGTTCAAGCGCCATCTAC” stands 0.943 RPM ratio (pull-down/input); under “GATGATTGTTCTCCCAGCTGATGAATTCCAATAATCGAGTAAACAAATTTTCCTAATCTTTCTGTTCAAGCGCCATCTAC”, 1.1 RPM ratio (pull-down/input); under “GATGATTGTTCTCCCAGCTGATGAATTAGCCTCTTCGAGTAAACAAATTTTCCTAATCTTTCTGTTCAAGCGCCATCTAC”, 0.925 RPM ratio (pull-down/input).

For “GATGATTGTTCTCCCAGCTGATGAATTCGGGCATTCGAGTAAACAAATTTTCCTAATCTTTCTGTTCAAGCGCCATCTAC”, the binding signal is 1.01 RPM ratio (pull-down/input).

For “GATGATTGTTCTCCCAGCTGATGAATTCCAGAACTCGAGTAAACAAATTTTCCTAATCTTTCTGTTCAAGCGCCATCTAC”, the binding signal was 0.723 RPM ratio (pull-down/input).

“GATGATTGTTCTCCCAGCTGATGAATTCTGTCGGTCGAGTAAACAAATTTTCCTAATCTTTCTGTTCAAGCGCCATCTAC”: the binding signal was 0.838 RPM ratio (pull-down/input).

For “GATGATTGTTCTCCCAGCTGATGAATTGTCACAATCGAGTAAACAAATTTTCCTAATCTTTCTGTTCAAGCGCCATCTAC”, the binding signal is 1.58 RPM ratio (pull-down/input). As to “GATGATTGTTCTCCCAGCTGATGAATTCCAACAATCGAGTAAACAAATTTTCCTAATCTTTCTGTTCAAGCGCCATCTAC”, the binding signal is 1.27 RPM ratio (pull-down/input).

Consider “GATGATTGTTCTCCCAGCTGATGAATTCAGCACTTCGAGTAAACAAATTTTCCTAATCTTTCTGTTCAAGCGCCATCTAC”, for which the binding signal is 0.847 RPM ratio (pull-down/input).

On to “GATGATTGTTCTCCCAGCTGATGAATTGATGTTTTCGAGTAAACAAATTTTCCTAATCTTTCTGTTCAAGCGCCATCTAC”, for which the binding signal was 2.82 RPM ratio (pull-down/input). Under “GATGATTGTTCTCCCAGCTGATGAATTTGGGGGGTCGAGTAAACAAATTTTCCTAATCTTTCTGTTCAAGCGCCATCTAC” stands 0.775 RPM ratio (pull-down/input). The same measure for “GATGATTGTTCTCCCAGCTGATGAATTGTAACATTCGAGTAAACAAATTTTCCTAATCTTTCTGTTCAAGCGCCATCTAC”: 1.4 RPM ratio (pull-down/input).

For the origin of these results see publication PMC12820563, “FoxP3 forms a head-to-head dimer in vivo and stabilizes its multimerization on adjacent microsatellites”.
